Source: the BET-seq Pho4 binding data (Le et al. 2018)
This is one part of the list. These are noisy estimates, calculated here from bound and input reads.

What follows are sequences tested against T1, Pho4 (S. cerevisiae) (UniProt P07270) (assay: relative binding free energy (BET-seq); higher = weaker binding). Details: reference: library average.
T1 sequence: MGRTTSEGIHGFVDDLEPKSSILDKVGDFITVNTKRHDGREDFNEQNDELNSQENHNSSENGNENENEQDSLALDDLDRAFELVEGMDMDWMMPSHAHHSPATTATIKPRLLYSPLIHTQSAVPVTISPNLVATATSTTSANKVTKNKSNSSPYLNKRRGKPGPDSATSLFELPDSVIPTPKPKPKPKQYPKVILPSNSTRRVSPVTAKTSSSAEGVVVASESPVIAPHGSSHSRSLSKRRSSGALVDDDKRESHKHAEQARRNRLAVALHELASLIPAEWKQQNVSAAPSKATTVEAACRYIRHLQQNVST

| Sequence | relative binding free energy [kcal/mol] |
| --- | --- |
| TGTATCACGTGAGATA | 0.33 |
| AATAACACGTGGCGGT | 0.03 |
| GAGGACACGTGGGGAA | -0.01 |
| TTTTACACGTGATGAG | 0.28 |
| TTGGTCACGTGTAGTT | 0.11 |
| GTTTACACGTGTTAGG | 0.23 |
| GGTCTCACGTGAATGG | 0.37 |
| ATCTGCACGTGGTGAG | 0.03 |
| GTTAGCACGTGAAATG | 0.18 |
| ATGGGCACGTGCTGAT | -0.15 |
| GTGTTCACGTGTTTAT | 0.31 |
| AGGGTCACGTGTAAGG | 0.13 |
| GGATGCACGTGTTGGT | 0.07 |
| GGGTGCACGTGTGTAT | 0.03 |
| TGTAACACGTGTTCTT | -0.02 |
| TAGATCACGTGTTGGC | 0.12 |
| CGGTTCACGTGGGGCA | 0.11 |
| ATTTTCACGTGGGGGG | 0.18 |
| ATATTCACGTGAAGTC | 0.4 |
| ATTTTCACGTGACTGC | 0.43 |
| GATCTCACGTGTTTTG | 0.18 |
| GAGATCACGTGGTCGT | 0.01 |
| TTACGCACGTGGTGTA | -0.29 |
| ATGCGCACGTGTCTGT | 0 |
| AGGGTCACGTGAGACG | 0.24 |

| Sequence | relative binding free energy [kcal/mol] |
| --- | --- |
| TTGGACACGTGGTGTG | -0.06 |
| TTTTGCACGTGCATGT | 0.05 |
| CTGTTCACGTGAATTA | 0.44 |
| CTTGGCACGTGTTGAA | -0.18 |
| TTTTCCACGTGTGATG | -0.01 |
| TTTTGCACGTGCGTCG | -0.11 |
| TTATTCACGTGAATTG | 0.41 |
| GGAGGCACGTGGTCTG | -0.19 |
| ATGAACACGTGATAGT | 0.13 |
| TGTATCACGTGCGGGA | 0.17 |
| AGGTGCACGTGAAGAA | 0.18 |
| GGTGACACGTGACGTG | 0.06 |
| TGAAACACGTGTGTTT | 0.05 |
| TTGATCACGTGGACTT | 0.18 |
| TTAAGCACGTGTAGAG | 0.01 |
| GCGCACACGTGGAGGG | 0.08 |
| GGGAACACGTGTGAGT | 0.2 |
| TGCAGCACGTGATGGT | 0.2 |
| GAGGGCACGTGCGTAA | -0.09 |
| GTGTGCACGTGGTTAA | -0.17 |
| TACTTCACGTGAGTGT | 0.21 |
| GGTGGCACGTGGGGGG | -0.13 |
| TACGCCACGTGTGGGG | -0.09 |
| ATTAACACGTGTAGTG | -0.12 |
| TATGGCACGTGGACGA | -0.11 |

| Sequence | relative binding free energy [kcal/mol] |
| --- | --- |
| TGTATCACGTGGGGAA | -0.06 |
| TGTCACACGTGAGAGG | 0.13 |
| GGTCGCACGTGGCGGG | -0.2 |
| TTGTCCACGTGAGTTT | 0.31 |
| ATGATCACGTGTCAGT | 0.21 |
| TGCTTCACGTGGTGAT | 0.17 |
| ATATGCACGTGGGAAA | -0.04 |
| AGTGTCACGTGCTATT | -0.08 |
| GTACACACGTGAGTTG | 0.19 |
| GCCTTCACGTGGAGTG | 0.3 |
| CTTTGCACGTGATGGT | 0.05 |
| TAACTCACGTGAGTTG | 0.29 |
| ATCGGCACGTGGGTGG | -0.16 |
| TTCGGCACGTGTGGGA | -0.06 |
| GGGCGCACGTGTTGGT | 0.01 |
| TTCGGCACGTGATAGA | -0.06 |
| GCGTTCACGTGGTTAA | 0.23 |
| CGAGGCACGTGCGTGT | -0.38 |
| GGTTACACGTGTTTTT | 0.31 |
| TGTCACACGTGGTACG | 0.07 |
| GGGAGCACGTGTCGTT | 0.15 |
| ATTGACACGTGGACTG | 0.04 |
| TTGGCCACGTGCAGGT | -0.06 |
| GATTACACGTGATTGG | 0.26 |
| GTTAGCACGTGCATTT | 0.03 |

| Sequence | relative binding free energy [kcal/mol] |
| --- | --- |
| TAGCTCACGTGTGAGT | 0.29 |
| GGAGGCACGTGGGACG | -0.24 |
| GGTTTCACGTGTTTTA | 0.32 |
| GGCGGCACGTGGGTAA | -0.16 |
| GTGAGCACGTGAGGGC | 0.25 |
| GGTCTCACGTGGTGAG | 0.31 |
| TAAAGCACGTGATGAG | -0.01 |
| TTGTACACGTGTTACG | -0.03 |
| AAAAACACGTGGGGGG | -0.25 |
| GGAGTCACGTGACGGT | 0.21 |
| GGGAGCACGTGTGAGG | 0.04 |
| GAGGACACGTGTTGAT | 0.08 |
| GGGAACACGTGATAGG | 0.16 |
| GGGGTCACGTGTACGC | 0.07 |
| GGTTTCACGTGAACGG | 0.23 |
| ATGTGCACGTGGAAGT | 0.07 |
| TGAGGCACGTGTGGAG | -0.08 |
| TCGGACACGTGGTGGA | -0.01 |
| AGGGCCACGTGGTTCG | -0.16 |
| TCATGCACGTGAGGGT | 0.15 |
| TGTGACACGTGGAGCG | 0.02 |
| GGCTTCACGTGGCGGG | 0.31 |
| AGAGGCACGTGATGGA | 0.01 |
| GTGCCCACGTGAAGTT | 0.44 |
| TTGAGCACGTGATTGG | 0.02 |

| Sequence | relative binding free energy [kcal/mol] |
| --- | --- |
| TTTAACACGTGGCGGG | -0.13 |
| ACTGGCACGTGAGTTT | 0.13 |
| GGGTTCACGTGGGGAG | 0.3 |
| CTGGCCACGTGGGTGT | -0.16 |
| GTGTACACGTGGGATA | 0.06 |
| TGCGTCACGTGGTACG | 0.07 |
| TAGTGCACGTGGTAGC | -0.09 |
| ACAAGCACGTGGGGGA | -0.27 |
| CTGTTCACGTGGTCTT | 0.19 |
| GTGCGCACGTGGTGTA | -0.1 |
| CTAATCACGTGGATTT | 0.11 |
| GGGCGCACGTGAGGAA | 0.2 |
| TTGAGCACGTGCCGGT | -0.09 |
| TTCTACACGTGTTGTT | 0.05 |
| CTTAGCACGTGGTAGA | -0.05 |
| TATTACACGTGTTTGT | 0.08 |
| GTGTTCACGTGTGAGG | 0.35 |
| AGTTCCACGTGGGTCG | -0.08 |
| TGTGTCACGTGAAATT | 0.41 |
| TTAGGCACGTGGGTTC | -0.19 |
| TGTAGCACGTGGGGGA | -0.21 |
| ATATCCACGTGTTTTT | -0.02 |
| TGAGGCACGTGTAAAG | -0.01 |
| TCATTCACGTGTGGAA | 0.3 |
| GTTGTCACGTGATTGT | 0.31 |

| Sequence | relative binding free energy [kcal/mol] |
| --- | --- |
| AGTGTCACGTGTCAGA | 0.19 |
| TAGTTCACGTGCATAG | 0.22 |
| TTTAGCACGTGTGCTT | -0.01 |
| GGGCACACGTGTGGTC | 0.24 |
| ATGTACACGTGGCGGA | 0.08 |
| GTTTACACGTGGCATT | 0.03 |
| TGACGCACGTGTGGGC | -0.11 |
| TTAGTCACGTGAAGTA | 0.18 |
| TCCGGCACGTGGTGGA | -0.09 |
| TTGGACACGTGAGTCT | 0.19 |
| ATTTGCACGTGGAGTT | 0 |
| ATATTCACGTGAATCG | 0.41 |
| GAATGCACGTGGAGTG | 0.01 |
| AAGGACACGTGGTAGA | 0.06 |
| TGAGACACGTGGTGCA | 0 |
| AGTCACACGTGGGCGG | -0.2 |
| GTAGACACGTGTTAAG | -0.01 |
| AGGGACACGTGGGACT | -0.03 |
| GGGGCCACGTGACGTG | 0.03 |
| TACGTCACGTGATTGT | 0.21 |
| ATCGACACGTGGTGAG | 0.05 |
